Some of the results follow. Repeats are few or missing, and single values can be far off.
Tested on: C32
Assay: cell count relative to DMSO control; melanoma cells; higher = more viable cells
Conditions: library dose: low library concentration; 72 h
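Note: cell number obtained by counting DAPI-stained nuclei in high-throughput microscope images with image analysis software, screen run in 1,536-well plates.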

Row | Structure (SMILES) | cell count [%]
1 | NC(=O)c1ccc(N(C(N)=O)c2c(F)cccc2F)nc1-c1ccc(F)cc1F + COc1cc(Nc2ncc(F)c(Nc3ccc4c(n3)NC(=O)C(C)(C)O4)n2)cc(OC)c1OC [Tamatinib] (first compound 0.4 µM, partner dose 0.4 µM) | 84.3
2 | CCCCCCCCc1ccc(CCC(N)(CO)CO)cc1 [fingolimod] + CN(C)S(=O)(=O)c1ccc2c(c1)/C(=C/c1cc3c([nH]1)CCCC3)C(=O)N2 [SU6656] (first compound 2 µM, partner dose 0.4 µM) | 95.5
3 | CCCCCCCCc1ccc(CCC(N)(CO)CO)cc1 [fingolimod] + OCCn1cc(-c2cnc3nnn(Cc4ccc5ncccc5c4)c3n2)cn1 [PF04217903] (first compound 2 µM, partner dose 1 µM) | 107
4 | NC(=O)c1ccc(N(C(N)=O)c2c(F)cccc2F)nc1-c1ccc(F)cc1F + NC(=O)Nc1cc(-c2cccc(F)c2)sc1C(=O)N[C@H]1CCCNC1 [AZD7762] (first compound 0.4 µM, partner dose 0.02 µM) | 101
5 | NC(=O)c1ccc(N(C(N)=O)c2c(F)cccc2F)nc1-c1ccc(F)cc1F + O=C(O)c1ccc(-c2c[nH]c3ncc(-c4ccccc4)cc23)cc1C1CCCC1 [GSK650394] (first compound 0.4 µM, partner dose 0.16 µM) | 89.9
6 | CCCCCCCCc1ccc(CCC(N)(CO)CO)cc1 [fingolimod] + COc1cc(Nc2ncc(F)c(Nc3ccc4c(n3)NC(=O)C(C)(C)O4)n2)cc(OC)c1OC [Tamatinib] (first compound 2 µM, partner dose 0.4 µM) | 83.1
